Experimental data from the supplement of paper PMC12645437, “Orthogonal IMiD-Degron Pairs Induce Selective Protein Degradation in Cells” (ACS Chemical Biology, 2025).
The list shows a part of the results.

B1: Q9UKT9 (peptide)
chain: FHCEVCGAGFTQKGNLLRHIKL
B2: Q9UKT9 (peptide)
chain: FSCDQCGAVFTQKGNLLRHIKL
B3: Q9UKT9 (peptide)
chain: FACDICGANFTQKGNLLRHIKL
B4: Q9UKT9 (peptide)
chain: FHCPVCGAPFTQKGNLLRHIKL
B5: Q9UKT9 (peptide)
chain: FICNQCGATFTQKGNLLRHIKL
B6: Q9UKT9 (peptide)
chain: FKCEVCGASFTQKGNLLRHIKL
B7: Q9UKT9 (peptide)
chain: FACEQCGARFTQKGNLLRHIKL
B8: Q9UKT9 (peptide)
chain: FMCEVCGACFTQKGNLLRHIKL
B9: Q9UKT9 (peptide)
chain: LTCEICGFYCTQKGNLLRHIKL
B10: Q9UKT9 (peptide)
chain: FCCPICGREFTQKGNLLRHIKL
B11: Q9UKT9 (peptide)
chain: FYCEICGAMFTQKGNLLRHIKL
B12: Q9UKT9 (peptide)
chain: FCCNQCGAEFTQKGNLLRHIKL
B13: Q9UKT9 (peptide)
chain: LNCNQCGFVCTQKGNLLRHIKL
B14: Q9UKT9 (peptide)
chain: FVCNVCGAKFTQKGNLLRHIKL
B15: Q9UKT9 (peptide)
chain: LYCNQCGFPCTQKGNLLRHIKL
B16: Q9UKT9 (peptide)
chain: FICNICGADFTQKGNLLRHIKL
B17: Q9UKT9 (peptide)
chain: FWCEICGRQFTQKGNLLRHIKL
B18: Q9UKT9 (peptide)
chain: FVCDICGAEFTQKGNLLRHIKL
B19: Q9UKT9 (peptide)
chain: FFCSVCGHHFTQKGNLLRHIKL
B20: Q9UKT9 (peptide)
chain: FNCPICGALFTQKGNLLRHIKL
B21: Q9UKT9 (peptide)
chain: LGCEICGFDCTQKGNLLRHIKL
B22: Q9UKT9 (peptide)
chain: FCCEICGRMFTQKGNLLRHIKL
B23: Q9UKT9 (peptide)
chain: LACEICGFDCTQKGNLLRHIKL
B24: Q9UKT9 (peptide)
chain: FFCNICGASFTQKGNLLRHIKL
B25: Q9UKT9 (peptide)
chain: FCCNICGAKFTQKGNLLRHIKL
B26: Q9UKT9 (peptide)
chain: LQCNQCGFFCTQKGNLLRHIKL
B27: Q9UKT9 (peptide)
chain: FKCSVCGHQFTQKGNLLRHIKL
B28: Q9UKT9 (peptide)
chain: FWCNICGATFTQKGNLLRHIKL
B29: Q9UKT9 (peptide)
chain: FFCDQCGARFTQKGNLLRHIKL
B30: Q9UKT9 (peptide)
chain: LCCPICGFTCTQKGNLLRHIKL
B31: Q9UKT9 (peptide)
chain: FQCNQCGHKFTQKGNLLRHIKL
B32: Q9UKT9 (peptide)
chain: LRCNQCGFLCTQKGNLLRHIKL
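Also: jurkat cells carrying a lentiviral library of mutant zinc finger degrons fused to EGFP plus mCherry, mCherry+ cells FACS sorted, degron abundance counted by next-generation sequencing.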

These sequences were tested against no compound (DMSO) (assay: log2 fold change of degron read counts, EGFP-low vs EGFP+ sorted cells; higher = lower degron-EGFP level without compound (poor expression or instability)). Settings: compound: DMSO control; 18 h.
In the case of B1, the “log2 fold change of degron read counts” value is reported as -1.2. For B2, the “log2 fold change of degron read counts” value was -1.05. B3 was tested, and the “log2 fold change of degron read counts” value was -1.89. In the case of B4, the “log2 fold change of degron read counts” value is reported as 0.00757. For B5, the “log2 fold change of degron read counts” value was -1.14. In the case of B6, the “log2 fold change of degron read counts” value is reported as -1.77. With B7 the “log2 fold change of degron read counts” value was -1.84. For B8, the “log2 fold change of degron read counts” value was -1.57. B9 was tested, and the “log2 fold change of degron read counts” value was 0.868. B10 was tested, and the “log2 fold change of degron read counts” value was -0.872. B11 was tested, and the “log2 fold change of degron read counts” value was -0.521. B12 was tested, and the “log2 fold change of degron read counts” value was -1.97. With B13 the “log2 fold change of degron read counts” value was 0.897. In the case of B14, the “log2 fold change of degron read counts” value is reported as -0.456. In the case of B15, the “log2 fold change of degron read counts” value is reported as 0.873. With B16 the “log2 fold change of degron read counts” value was -0.607. For B17, the “log2 fold change of degron read counts” value was -0.694. With B18 the “log2 fold change of degron read counts” value was -2.24. With B19 the “log2 fold change of degron read counts” value was 0.753. With B20 the “log2 fold change of degron read counts” value was -0.0694. B21 was tested, and the “log2 fold change of degron read counts” value was -0.253. With B22 the “log2 fold change of degron read counts” value was -0.744. With B23 the “log2 fold change of degron read counts” value was -0.83. B24 was tested, and the “log2 fold change of degron read counts” value was 0.331. In the case of B25, the “log2 fold change of degron read counts” value is reported as -1.73. In the case of B26, the “log2 fold change of degron read counts” value is reported as 0.614. In the case of B27, the “log2 fold change of degron read counts” value is reported as -0.96. With B28 the “log2 fold change of degron read counts” value was -0.12. B29 was tested, and the “log2 fold change of degron read counts” value was -1.45. B30 was tested, and the “log2 fold change of degron read counts” value was 0.626. In the case of B31, the “log2 fold change of degron read counts” value is reported as -0.505. In the case of B32, the “log2 fold change of degron read counts” value is reported as 1.2.
